These are yes or no findings as the source states them, for the method shown. For part of these data: In cells and extracts the contact can be indirect. Some entries that bind do so weakly or less than the wild type.
Columns and labels:
[1] = target: T1, Fra-1 (human (endogenous in SH-SY5Y)) (UniProt P15407); test: co-IP; lysates of SK-N-SH, SK-N-BE(2) and KP-N-NS cells (Supplementary Data S2; Figure 2)
T1 sequence: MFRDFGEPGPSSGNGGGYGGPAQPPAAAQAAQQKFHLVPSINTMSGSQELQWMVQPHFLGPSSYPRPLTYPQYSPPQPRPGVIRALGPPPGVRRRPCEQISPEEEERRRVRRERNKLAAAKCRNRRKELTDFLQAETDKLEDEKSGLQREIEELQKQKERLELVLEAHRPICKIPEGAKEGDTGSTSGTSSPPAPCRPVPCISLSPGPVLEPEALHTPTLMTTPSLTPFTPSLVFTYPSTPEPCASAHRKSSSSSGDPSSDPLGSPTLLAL

[2] = target: T1, Fra-1 (human (endogenous in SH-SY5Y)); test: native gel or EMSA; 32P-labelled AP-1 (TRE) probe with nuclear extracts of SH-SY5Y; 1 ug c-Jun or Fra-1 antibody preincubated with the extract at 4 C for one hour; 4% polyacrylamide gel
[3] = target: T1, Fra-1 (human (endogenous in SH-SY5Y)); test: co-IP; SH-SY5Y cell extracts immunoprecipitated with 2 ug antibody against c-Fos, FosB, Fra-1, Fra2, c-Jun, JunB, JunD, ATF2 or normal IgG, agarose beads with protein A plus G; WB with c-Jun or Fra-1 monoclonal antibody
[4] = target: T2, JunD (human (endogenous in SH-SY5Y)) (UniProt P17535); test: as above
T2 sequence: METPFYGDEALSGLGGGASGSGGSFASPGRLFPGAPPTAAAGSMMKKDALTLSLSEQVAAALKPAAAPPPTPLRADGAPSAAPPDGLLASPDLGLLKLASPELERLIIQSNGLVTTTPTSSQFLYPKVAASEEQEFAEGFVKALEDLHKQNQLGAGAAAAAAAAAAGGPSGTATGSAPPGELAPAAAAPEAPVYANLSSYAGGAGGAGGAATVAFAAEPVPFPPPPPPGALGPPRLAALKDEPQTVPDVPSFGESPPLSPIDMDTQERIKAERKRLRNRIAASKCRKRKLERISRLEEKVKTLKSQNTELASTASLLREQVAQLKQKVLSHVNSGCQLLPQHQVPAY

[5] = target: T3, ATF2 (human (endogenous in SH-SY5Y)) (UniProt P15336); test: as above
T3 sequence: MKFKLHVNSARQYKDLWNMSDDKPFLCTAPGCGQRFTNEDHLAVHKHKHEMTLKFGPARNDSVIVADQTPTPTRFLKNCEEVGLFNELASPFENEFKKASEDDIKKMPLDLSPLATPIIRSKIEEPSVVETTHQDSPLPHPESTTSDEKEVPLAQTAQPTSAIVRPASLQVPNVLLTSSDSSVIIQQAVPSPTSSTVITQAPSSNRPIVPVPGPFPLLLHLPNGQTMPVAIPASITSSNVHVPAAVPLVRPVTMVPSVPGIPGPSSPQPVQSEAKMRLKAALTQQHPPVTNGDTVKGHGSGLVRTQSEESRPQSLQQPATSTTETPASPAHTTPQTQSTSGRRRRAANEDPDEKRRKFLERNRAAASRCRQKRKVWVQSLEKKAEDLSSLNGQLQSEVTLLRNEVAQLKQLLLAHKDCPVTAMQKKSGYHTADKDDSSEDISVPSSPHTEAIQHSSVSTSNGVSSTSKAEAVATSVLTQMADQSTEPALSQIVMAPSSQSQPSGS

[6] = target: T4, FosB (human (endogenous in SH-SY5Y)) (UniProt P53539); test: as above
T4 sequence: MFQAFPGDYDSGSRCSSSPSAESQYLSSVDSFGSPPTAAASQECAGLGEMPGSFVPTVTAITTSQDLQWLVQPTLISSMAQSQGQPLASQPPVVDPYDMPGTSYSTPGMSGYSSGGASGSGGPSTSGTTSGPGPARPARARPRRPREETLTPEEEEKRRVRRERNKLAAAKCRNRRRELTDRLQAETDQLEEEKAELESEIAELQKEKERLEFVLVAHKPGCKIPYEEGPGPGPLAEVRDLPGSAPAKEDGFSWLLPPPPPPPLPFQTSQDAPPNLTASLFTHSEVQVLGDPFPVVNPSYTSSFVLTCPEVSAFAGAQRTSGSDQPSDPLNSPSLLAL

[7] = target: T5, Fra2 (human (endogenous in SH-SY5Y)) (UniProt P15408); test: as above
T5 sequence: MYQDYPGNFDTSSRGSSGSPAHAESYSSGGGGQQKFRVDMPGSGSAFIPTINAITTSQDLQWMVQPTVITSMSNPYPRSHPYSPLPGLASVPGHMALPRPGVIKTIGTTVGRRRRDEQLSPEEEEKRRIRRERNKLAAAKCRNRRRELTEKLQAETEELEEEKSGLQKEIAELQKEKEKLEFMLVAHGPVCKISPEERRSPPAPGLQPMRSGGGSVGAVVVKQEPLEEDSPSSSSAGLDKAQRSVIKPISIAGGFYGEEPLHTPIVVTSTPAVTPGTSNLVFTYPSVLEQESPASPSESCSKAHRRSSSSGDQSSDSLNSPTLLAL

[8] = target: c-Jun (human (endogenous in SH-SY5Y)) (UniProt P05412); test: as above
[9] = target: T6, JunB (human (endogenous in SH-SY5Y)), P17275; test: as above; settings: remark: other sources report otherwise
T6 chain: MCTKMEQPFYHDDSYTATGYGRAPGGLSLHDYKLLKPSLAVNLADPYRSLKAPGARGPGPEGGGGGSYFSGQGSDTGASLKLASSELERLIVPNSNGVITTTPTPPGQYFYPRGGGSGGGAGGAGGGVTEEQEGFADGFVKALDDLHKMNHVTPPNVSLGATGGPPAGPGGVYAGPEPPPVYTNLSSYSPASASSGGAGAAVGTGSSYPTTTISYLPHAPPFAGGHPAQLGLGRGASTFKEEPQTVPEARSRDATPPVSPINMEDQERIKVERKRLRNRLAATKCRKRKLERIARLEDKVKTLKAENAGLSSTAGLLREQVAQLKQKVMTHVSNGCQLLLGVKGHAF

[10] = target: T7, JunD (human (endogenous in SH-SY5Y)), P17535; test: as above; settings: remark: other sources report otherwise
T7 chain: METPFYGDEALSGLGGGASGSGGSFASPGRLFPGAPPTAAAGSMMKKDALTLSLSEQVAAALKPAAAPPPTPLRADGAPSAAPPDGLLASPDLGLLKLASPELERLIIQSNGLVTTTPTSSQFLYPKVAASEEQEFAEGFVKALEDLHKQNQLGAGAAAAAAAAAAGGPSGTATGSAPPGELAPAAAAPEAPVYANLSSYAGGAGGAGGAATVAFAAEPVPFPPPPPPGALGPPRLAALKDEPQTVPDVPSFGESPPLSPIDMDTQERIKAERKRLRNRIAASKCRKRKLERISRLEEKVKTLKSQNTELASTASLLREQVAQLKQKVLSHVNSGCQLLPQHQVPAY

[11] = target: T8, c-Fos (human (endogenous in SH-SY5Y)), P01100; test: as above; settings: remark: other sources report otherwise
T8 chain: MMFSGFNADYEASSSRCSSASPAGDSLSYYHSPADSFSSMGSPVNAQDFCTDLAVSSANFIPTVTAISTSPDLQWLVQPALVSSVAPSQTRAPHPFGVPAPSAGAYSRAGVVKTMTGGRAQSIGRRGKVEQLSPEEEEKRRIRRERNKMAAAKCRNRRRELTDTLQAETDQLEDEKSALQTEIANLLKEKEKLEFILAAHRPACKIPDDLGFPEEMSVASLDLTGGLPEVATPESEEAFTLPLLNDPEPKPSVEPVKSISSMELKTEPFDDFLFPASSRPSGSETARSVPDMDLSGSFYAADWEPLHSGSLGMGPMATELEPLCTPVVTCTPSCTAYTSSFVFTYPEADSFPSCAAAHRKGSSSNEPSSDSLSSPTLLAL

[12] = target: T9, ATF2 (human (endogenous in SH-SY5Y)), P15336; test: as above; settings: remark: other sources report otherwise
T9 chain: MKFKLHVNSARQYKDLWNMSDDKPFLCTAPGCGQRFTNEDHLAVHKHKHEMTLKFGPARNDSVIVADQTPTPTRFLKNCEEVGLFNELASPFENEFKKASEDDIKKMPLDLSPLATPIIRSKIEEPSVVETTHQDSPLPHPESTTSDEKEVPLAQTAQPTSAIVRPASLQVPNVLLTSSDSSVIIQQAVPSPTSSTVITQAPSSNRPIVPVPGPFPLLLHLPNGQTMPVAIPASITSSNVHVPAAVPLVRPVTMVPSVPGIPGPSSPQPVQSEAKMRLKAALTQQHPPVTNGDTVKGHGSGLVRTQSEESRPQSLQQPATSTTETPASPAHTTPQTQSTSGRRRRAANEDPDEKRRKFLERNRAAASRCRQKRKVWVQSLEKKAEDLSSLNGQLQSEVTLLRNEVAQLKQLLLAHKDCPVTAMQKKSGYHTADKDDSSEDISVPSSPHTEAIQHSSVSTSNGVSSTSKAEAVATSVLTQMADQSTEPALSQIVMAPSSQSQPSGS

[13] = target: T10, FosB (human (endogenous in SH-SY5Y)), P53539; test: as above; settings: remark: other sources report otherwise
T10 chain: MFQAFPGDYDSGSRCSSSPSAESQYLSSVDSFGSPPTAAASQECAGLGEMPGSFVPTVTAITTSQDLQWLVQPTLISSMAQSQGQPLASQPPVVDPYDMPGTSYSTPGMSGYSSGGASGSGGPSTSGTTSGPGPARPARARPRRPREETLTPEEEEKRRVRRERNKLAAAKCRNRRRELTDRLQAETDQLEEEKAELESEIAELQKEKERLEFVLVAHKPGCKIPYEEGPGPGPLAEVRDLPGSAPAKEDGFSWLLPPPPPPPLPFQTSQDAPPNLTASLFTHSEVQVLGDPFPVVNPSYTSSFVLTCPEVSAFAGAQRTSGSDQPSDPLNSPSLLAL

[14] = target: T11, Fra2 (human (endogenous in SH-SY5Y)), P15408; test: as above; settings: remark: other sources report otherwise
T11 chain: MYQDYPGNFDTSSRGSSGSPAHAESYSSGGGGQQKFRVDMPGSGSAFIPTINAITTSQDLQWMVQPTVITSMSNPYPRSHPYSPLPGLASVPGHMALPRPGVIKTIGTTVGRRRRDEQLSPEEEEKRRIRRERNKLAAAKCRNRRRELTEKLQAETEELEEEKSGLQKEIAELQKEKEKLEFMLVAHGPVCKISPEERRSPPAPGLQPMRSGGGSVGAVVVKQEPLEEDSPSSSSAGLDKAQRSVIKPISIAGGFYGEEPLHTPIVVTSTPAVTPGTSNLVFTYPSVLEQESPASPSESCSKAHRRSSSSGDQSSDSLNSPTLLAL

Molecule: c-Jun (from UniProt P05412 1-331)
- binding [1]: binds
- binding [2]: binds
- binding [3]: binds
- binding [4]: no binding

B1: Fra-1 (protein, UniProt P15407 1-271)
chain: MFRDFGEPGPSSGNGGGYGGPAQPPAAAQAAQQKFHLVPSINTMSGSQELQWMVQPHFLGPSSYPRPLTYPQYSPPQPRPGVIRALGPPPGVRRRPCEQISPEEEERRRVRRERNKLAAAKCRNRRKELTDFLQAETDKLEDEKSGLQREIEELQKQKERLELVLEAHRPICKIPEGAKEGDTGSTSGTSSPPAPCRPVPCISLSPGPVLEPEALHTPTLMTTPSLTPFTPSLVFTYPSTPEPCASAHRKSSSSSGDPSSDPLGSPTLLAL
- binding [5]: no binding
- binding [6]: no binding
- binding [7]: no binding
- binding [8]: binds

B2: Fra-1, P15407 1-271 (protein)
chain: MFRDFGEPGPSSGNGGGYGGPAQPPAAAQAAQQKFHLVPSINTMSGSQELQWMVQPHFLGPSSYPRPLTYPQYSPPQPRPGVIRALGPPPGVRRRPCEQISPEEEERRRVRRERNKLAAAKCRNRRKELTDFLQAETDKLEDEKSGLQREIEELQKQKERLELVLEAHRPICKIPEGAKEGDTGSTSGTSSPPAPCRPVPCISLSPGPVLEPEALHTPTLMTTPSLTPFTPSLVFTYPSTPEPCASAHRKSSSSSGDPSSDPLGSPTLLAL
- binding [9]: no binding
- binding [10]: no binding
- binding [11]: no binding

B3: c-Jun, P05412 1-331 (protein)
chain: MTAKMETTFYDDALNASFLPSESGPYGYSNPKILKQSMTLNLADPVGSLKPHLRAKNSDLLTSPDVGLLKLASPELERLIIQSSNGHITTTPTPTQFLCPKNVTDEQEGFAEGFVRALAELHSQNTLPSVTSAAQPVNGAGMVAPAVASVAGGSGSGGFSASLHSEPPVYANLSNFNPGALSSGGGAPSYGAAGLAFPAQPQQQQQPPHHLPQQMPVQHPRLQALKEEPQTVPEMPGETPPLSPIDMESQERIKAERKRMRNRIAASKCRKRKLERIARLEEKVKTLKAQNSELASTANMLREQVAQLKQKVMNHVNSGCQLMLTQQLQTF
- binding [12]: no binding
- binding [13]: no binding
- binding [14]: no binding
- binding [9]: no binding

From PMC4872745
